Read-outs that look alike come from different tables or passages of the source. No constants are given. Whether binding was seen depends on the method and setting. In cells and extracts the contact can be indirect. Some binding calls cover weakened binding; strength is not graded here. Each block holds one molecule with its values, some of them ahead of it.
Assays:
Test in all cases: co-IP; SUZ12 IPs from lysates of Suz12GT/GT ESCs stably expressing FLAG-tagged constructs; lysis in 300 mM NaCl, 0.5% NP-40, diluted 1:1 with no salt buffer; benzonase; Protein G Dynabeads; immunoblot
[1] = molecular target: FLAG-tagged SUZ12Δ93 (human) (UniProt Q15022)
FLAG-tagged JAZF1-SUZ12 [2] = molecular target: FLAG-tagged JAZF1-SUZ12 (UniProt Q86VZ6)
[3] = molecular target: FLAG-tagged SUZ12Δ93 (human) (UniProt Q15022); remark: listed apart in the source
FLAG-tagged JAZF1-SUZ12 [4] = molecular target: FLAG-tagged JAZF1-SUZ12 (UniProt Q86VZ6); remark: listed apart in the source
[5] = molecular target: FLAG-tagged SUZ12 (human) (UniProt Q15022)

Sequences of proteins named here, by UniProt entry; tags and fusion partners are left off. A change or cut given only in a name is not applied to a line headed by its entry. A line that says so, or that is headed by a name, gives the form on record, which may keep a tag or linker. Residues count along the entry.
UniProt Q15022: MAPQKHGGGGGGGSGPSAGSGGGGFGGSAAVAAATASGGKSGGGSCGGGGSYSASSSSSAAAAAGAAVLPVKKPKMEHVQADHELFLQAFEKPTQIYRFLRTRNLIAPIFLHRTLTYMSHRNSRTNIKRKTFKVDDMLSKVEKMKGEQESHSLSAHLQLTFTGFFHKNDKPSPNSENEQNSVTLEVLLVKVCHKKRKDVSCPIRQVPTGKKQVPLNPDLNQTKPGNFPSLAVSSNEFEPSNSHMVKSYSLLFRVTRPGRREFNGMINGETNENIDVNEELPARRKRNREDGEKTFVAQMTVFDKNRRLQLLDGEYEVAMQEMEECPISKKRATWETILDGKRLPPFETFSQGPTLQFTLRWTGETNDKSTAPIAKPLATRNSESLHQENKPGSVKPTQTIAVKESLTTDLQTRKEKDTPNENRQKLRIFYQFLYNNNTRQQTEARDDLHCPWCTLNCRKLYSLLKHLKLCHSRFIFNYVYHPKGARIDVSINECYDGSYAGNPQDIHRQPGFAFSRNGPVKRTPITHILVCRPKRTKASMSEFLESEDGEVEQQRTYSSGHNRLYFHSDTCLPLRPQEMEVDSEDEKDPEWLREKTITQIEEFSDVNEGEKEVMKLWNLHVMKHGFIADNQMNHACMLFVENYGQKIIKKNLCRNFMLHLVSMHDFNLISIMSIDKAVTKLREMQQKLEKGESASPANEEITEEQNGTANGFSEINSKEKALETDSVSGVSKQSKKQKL
FLAG-tagged SUZ12Δ93: residues 94-739 of Q15022
UniProt Q86VZ6: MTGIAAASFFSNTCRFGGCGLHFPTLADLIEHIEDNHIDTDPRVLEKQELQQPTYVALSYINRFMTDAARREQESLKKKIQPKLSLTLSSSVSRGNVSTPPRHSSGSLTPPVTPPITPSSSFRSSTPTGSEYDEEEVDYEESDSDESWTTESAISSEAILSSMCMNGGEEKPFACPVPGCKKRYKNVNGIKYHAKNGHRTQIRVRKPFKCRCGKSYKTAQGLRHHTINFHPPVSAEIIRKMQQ
UniProt Q61188: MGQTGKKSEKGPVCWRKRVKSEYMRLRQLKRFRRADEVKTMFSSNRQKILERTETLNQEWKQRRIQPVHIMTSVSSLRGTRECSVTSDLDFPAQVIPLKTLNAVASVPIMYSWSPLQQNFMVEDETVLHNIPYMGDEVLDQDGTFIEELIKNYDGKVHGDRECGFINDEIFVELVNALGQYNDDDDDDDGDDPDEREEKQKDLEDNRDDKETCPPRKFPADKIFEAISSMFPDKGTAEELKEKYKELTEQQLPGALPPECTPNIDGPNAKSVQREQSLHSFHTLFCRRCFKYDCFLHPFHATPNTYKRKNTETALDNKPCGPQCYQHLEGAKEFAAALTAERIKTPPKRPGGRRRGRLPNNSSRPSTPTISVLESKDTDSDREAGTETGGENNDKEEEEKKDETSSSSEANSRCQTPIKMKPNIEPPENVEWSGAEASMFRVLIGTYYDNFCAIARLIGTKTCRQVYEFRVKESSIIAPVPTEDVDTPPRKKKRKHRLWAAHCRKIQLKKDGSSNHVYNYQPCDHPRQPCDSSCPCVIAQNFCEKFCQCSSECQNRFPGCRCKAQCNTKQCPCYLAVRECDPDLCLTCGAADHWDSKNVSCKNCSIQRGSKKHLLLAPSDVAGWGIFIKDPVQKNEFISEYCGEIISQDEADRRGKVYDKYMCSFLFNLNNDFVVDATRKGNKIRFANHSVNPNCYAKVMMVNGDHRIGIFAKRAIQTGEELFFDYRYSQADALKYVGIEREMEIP
UniProt Q02395: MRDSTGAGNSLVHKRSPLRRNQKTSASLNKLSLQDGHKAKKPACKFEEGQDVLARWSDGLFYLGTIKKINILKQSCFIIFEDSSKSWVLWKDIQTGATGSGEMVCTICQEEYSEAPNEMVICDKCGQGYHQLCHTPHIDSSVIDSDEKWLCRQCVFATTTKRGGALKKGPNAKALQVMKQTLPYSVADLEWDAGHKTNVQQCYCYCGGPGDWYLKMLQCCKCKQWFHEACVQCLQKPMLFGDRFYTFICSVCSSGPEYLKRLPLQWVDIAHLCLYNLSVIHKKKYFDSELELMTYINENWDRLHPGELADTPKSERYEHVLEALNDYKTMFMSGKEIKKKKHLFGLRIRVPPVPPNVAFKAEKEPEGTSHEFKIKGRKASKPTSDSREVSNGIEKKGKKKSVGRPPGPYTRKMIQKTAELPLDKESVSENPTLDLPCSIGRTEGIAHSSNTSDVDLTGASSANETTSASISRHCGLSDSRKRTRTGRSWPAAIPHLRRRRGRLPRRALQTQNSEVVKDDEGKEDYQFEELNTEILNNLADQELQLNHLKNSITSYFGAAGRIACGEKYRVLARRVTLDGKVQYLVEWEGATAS

Molecule: EZH2 (from UniProt Q61188 1-746)
binding [1]: binds
binding (FLAG-tagged JAZF1-SUZ12 [2]): binds

B1: AEBP2 (protein, UniProt Q9Z248 1-504)
chain: MAAALADMADLEELSRLSPLSPGSPGPAARGRAEPPEEEEEEDDEEAEAEAVAALLLNGGAGGGAGGGEAETMSEPSPESASQAGGDEDEDEEDDEDEGSSSGGAEEESSAESLVGSSSGGCSGDETRSLSPGAASSSSGDGDGKEGLEEPKGPRGGPGGPGSSGGGSSSSSVVSSGGDEGYGTGGGGSSATSGGRRGSLEMSSDGEPLSRMDSEDSISSTLMDIDSTISSGRSTPAMMNGQGSTTASSKHIAYNCCWDQCQACFNSSPDLADHIRSIHVDGQRGGVFVCLWKGCKVYNTPSTSQSWLQRHMLTHSGDKPFKCVVGGCNASFASQGGLARHVPTHFSQQNSSKVSSQPKAKEESPSKAGMNKRRKLKNKRRRSLPRPHDFFDAQTLDAIRHRAICFNLSAHIESLGKGHSVVFHSTVIAKRKEESGKIKLLLHWMPEDILPDVWVNESERHQLKTKVVHLSKLPKDTALLLDPNIYRTMPQKRLKRFDILNFPR
binding [3]: binds
binding (FLAG-tagged JAZF1-SUZ12 [4]): binds

B2: EPOP (protein, UniProt Q7TNS8 1-369)
chain: METLCPPPRLAVPASPRGSPCSPTPLKPRRGTPEFSPLCLRALAFCALAKPRPSSLGLGPGELAPRTPVLLGPPASPCTGGWAADGLKHLGGQAGRPSDVSSPAREDADVAVCPGGGEEEEGGGGFPHFGAGSCAPPGRCPAPLRPQDSPTNPAWSPPRPARGLDAASSPPLEPGSPPPSPPAGLSPEPAPSEQPVPASEAPGGGDPAPTAPEAPALSPSTADAAPDPPRDLRQEHFNRLIRRSKLWCYAKGFALDTPSLRRGPERPAAKARGAAKKRRRPAPPPPSVQPRRPVPTLPTSSTFSLLDCFPCPPALVVEENGDLGPASSLRLQGDAKPPPAHPLWKWQMGGPAVPEPPGLKSWWVNLEEL
binding [3]: no binding
binding (FLAG-tagged JAZF1-SUZ12 [4]): no binding
binding [5]: binds

Second part, the molecule after the results:

binding [1]: binds
binding (FLAG-tagged JAZF1-SUZ12 [2]): binds
Molecule: PCL2 (from UniProt Q02395 1-593)

binding [3]: no binding
binding (FLAG-tagged JAZF1-SUZ12 [4]): no binding
binding [5]: binds
B3: JARID2 (protein, UniProt Q62315 1-1234)
chain: MSKERPKRNIIQKKYDDSDGIPWSEERVVRKVLYLSLKEFKNAQKRQHGEGLAGSLKAVNGLLGNAQAKALGPASEQSENEKDDASQVSSTSNDVSSSDFEEGPSRKRPRLQAQRKFAQSQPNSPSTTPVKIVEPLLPPPATQISDLSKRKPKTEDFLTFLCLRGSPALPNSMVYFGSSQDEEDVEEEDDETEDVKATTNNASSSCQSTPRKGKTHKHVHNGHVFNGSSRSAREKEPAHKHRSKEATPGKEKHSEPRADSRREQASGAQPTAASAAASSAKGLAANHQPPPSHRSAQDLRKQVSKVNGVTRMSSLGAGTNSAKKIREVRPSPSKTVKYTATVTKGTVTYTKAKRELVKETKPNHHKPSSAVNHTISGKTESSNAKTRKQVLSLGGASKSTGPAASGLKASSRLNPKSCTKEVGGRQLREGLRNSKRRLEEAQQVDKPQSPPKKMKGVAGNAEAPGKKASAASGEKSLLNGHVKKEVPERSLERNRPKRAAAGKNMLGKQAHGKTEGTPCENRSTSQPESSHKPHDPQGKPEKGSGKSGWAAMDEIPVLRPSAKEFHDPLIYIESVRAQVEKYGMCRVIPPPDWRPECKLNDEMRFVTQIQHIHKLGRRWGPNVQRLACIKKHLRSQGITMDELPLIGGCELDLACFFRLINEMGGMQQVTDLKKWNKLADMLRIPKTAQDRLAKLQEAYCQYLLSYDSLSPEEHRRLEKEVLMEKEILEKRKGPLEGHTESDHHKFHSLPRFEPKNGLVHGVTPRNGFRSKLKEVGRAPLKTGRRRLFAQEKEVVKEEEEDKGVLNDFHKCIYKGRSVSLTTFYRTARNIMNMCFSKEPAPAEIEQEYWRLVEEKDCHVAVHCGKVDTNTHGSGFPVGKSEPFSRHGWNLTVLPNNTGSILRHLGAVPGVTIPWLNIGMVFSTSCWSRDQNHLPYIDYLHTGADCIWYCIPAEEENKLEDVVHTLLQGNGTPGLQMLESNVMISPEVLCKKGIKVHRTVQQSGQFVVCFPGSFVSKVCCGYNVSETVHFATTQWTSMGFETAKEMKRRHIAKPFSMEKLLYQIAQAEAKKENGPTLSTISALLDELRDTELRQRRLLFEAGLHSSARYGSHDGNSTVADGKKKPRKWLQLETSERRCQICQHLCYLSMVVQENENVVFCLECALRHVEKQKSCRGLKLMYRYDEEQIISLVNQICGKVSGKHGGIENCLNKPTPKRGPRKRATVDVPPSRLPSS

Source: publication PMC9637993
